Assay results reported in the supplement of paper PMC5499739.
Whole data set: some 16,000 sequences, median “Z-score” near -0.37, cut for the highest 2% near 3.1. This is one part of the list.

Each sequence was assayed on RBM10 RRM1-ZnF-RRM2 (GST-tagged construct) (assay: RNAcompete 7-mer binding Z-score; higher = stronger binding preference).
Procedure, shortened: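 Bound RNA was identified by microarray hybridisation after GST-tagged RBM10 constructs (20 pmol) had been mixed with 1.5 nmol of a designed pool of 241 399 RNAs up to 41 nt, transcribed from microarray-derived DNA templates. Binding ran for 30 min at 4°C in 1 ml Hepes pH 7.8 buffer with KCl, NaCl, glycerol, DTT, BSA and glutathione Sepharose beads, with four 2-min washes at 4°C afterwards. For every heptamer motif, a one-sided Z-score for enrichment was computed across the probes that contained it.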

| Sequence | RNAcompete 7-mer binding Z-score |
| --- | --- |
| UAACCCU | -0.901 |
| UUCGAUU | -0.766 |
| AGAAGCC | -0.861 |
| UAAAUCC | -0.763 |
| CCCUCAU | -0.777 |
| CCCAUUA | -0.908 |
| UUCAUCC | -0.748 |
| CUGAAAC | -0.694 |
| GUAGGCG | 2.29 |
| GGAUUGC | 0.88 |
| AGCACCC | -0.533 |
| GAACGGC | 0.84 |
| GCUGGAC | 0.111 |
| GGAUAGG | 4.1 |
| ACUACGC | -0.752 |
| AUGGCCC | -0.213 |
| CAAUGUC | -0.34 |
| AGUUGUA | 0.108 |
| CCAACAC | -0.482 |
| UUGCCCU | -0.919 |
| AAUUGAU | -0.224 |
| CAACAGA | -0.114 |
| GCCGUAA | -0.388 |
| ACUACAC | -0.57 |

| Sequence | RNAcompete 7-mer binding Z-score |
| --- | --- |
| CUUAACG | -0.57 |
| ACGCACA | -0.566 |
| GGAGUGU | 2.6 |
| GACUUAU | -0.723 |
| UGAGCCG | -0.14 |
| GCAGAGG | 2.33 |
| UUCACGU | -0.606 |
| UCAUGUA | -0.537 |
| CCGAAAA | -0.704 |
| CUUUGGG | 0.439 |
| AAAGGUU | 3.09 |
| GAGGGCC | 1.12 |
| CUACAUU | -0.854 |
| UGGGCGA | 3.11 |
| CAUCGGU | -0.296 |
| AGCUGCC | -0.795 |
| UUUCAAG | -0.581 |
| AGAGGAA | 2.46 |
| UCGACCC | -0.803 |
| AUAAAAU | -0.46 |
| AGUCUUG | -0.613 |
| AGGGCCA | 0.752 |
| GCGAAGC | 0.436 |
| CGCUACU | -0.73 |

| Sequence | RNAcompete 7-mer binding Z-score |
| --- | --- |
| GAUUCCU | -0.832 |
| GUCGGGC | 1.13 |
| UCGGUCG | 0.0131 |
| UGAGUAU | -0.125 |
| UAUUCCA | -0.606 |
| GGAACAC | 1.11 |
| GCCGAGA | -0.275 |
| UUACCGA | -0.544 |
| AAUUACA | -0.511 |
| GUUAUGC | -0.406 |
| ACGCAGU | -0.475 |
| AUGCGAG | 0.731 |
| AUUGACG | -0.067 |
| CUGGGCG | 1.05 |
| ACGGCAU | 0.148 |
| CACGACU | -0.643 |
| AGCGCCA | -0.428 |
| GGUUAUG | 1.39 |
| AAUGCUU | -0.668 |
| GACGUUC | -0.774 |
| CGAGUGA | 0.476 |
| UGAGGAU | 1.69 |
| UGCCCAC | -0.537 |
| AUCUAAA | -0.577 |

| Sequence | RNAcompete 7-mer binding Z-score |
| --- | --- |
| ACAGGUG | 2.02 |
| AUUGUGU | -0.388 |
| CUCCAGU | -0.639 |
| GGAGUUA | 1.67 |
| CUUUAUU | -0.763 |
| GAGCGCA | -0.0816 |
| CUCACCC | -0.883 |
| AGAUAAC | -0.34 |
| UGGUUGC | 0.312 |
| GGGACGC | 1.41 |
| UCAUAAA | -0.413 |
| UCGUUUG | -0.409 |
| GCUACCU | -0.825 |
| GGGACCC | 0.712 |
| UCAACUA | -0.697 |
| ACAUCGA | -0.402 |
| GCGUGUG | 0.618 |
| ACCUGCC | -1.04 |
| GUGCCAG | 0.272 |
| UUGAUAU | -0.588 |
| GCGAUGU | 0.33 |
| UGUCCAC | -0.606 |
| ACGCCAA | -0.65 |
| GCGGAAG | 1.8 |

| Sequence | RNAcompete 7-mer binding Z-score |
| --- | --- |
| CUCUGAC | -0.774 |
| CCAAGGU | 0.253 |
| ACUAUAC | -0.624 |
| UCUUUUA | -0.628 |
| GCAUUAU | -0.282 |
| GUUCUAA | -0.595 |
| UGCAGAG | 0.567 |
| AGUUUGU | -0.271 |
| GCCAUCA | -0.675 |
| GGCUAUU | -0.173 |
| CUCAAAA | -0.719 |
| GUCGCUC | -0.391 |
| UUCUGCU | -0.868 |
| ACCUGGA | -0.329 |
| GCAGGGA | 2.94 |
| UAUGUCA | -0.191 |
| CCGUUAG | -0.519 |
| GAGUGUC | -0.129 |
| CCUUACU | -0.916 |
| GGCAUUC | -0.202 |
| UUCUAAC | -0.73 |
| GAGAACC | 0.0058 |
| CUGUGUC | -0.646 |
| CCUGCCG | -0.759 |

| Sequence | RNAcompete 7-mer binding Z-score |
| --- | --- |
| UGGUCCU | -0.486 |
| AAACUGC | -0.57 |
| UAAUUAC | -0.559 |
| AGAGACA | 0.00944 |
| UUUAAGC | -0.803 |
| CCUAGCG | -0.559 |
| AAAGAAC | -0.0343 |
| AGUUUCU | -0.643 |
| GUCGUGA | 0.202 |
| CUGCGCA | -0.573 |
| CAGACUA | -0.428 |
| CCCAAUA | -0.759 |
| CACACAG | -0.133 |
| CCGGCCA | -0.712 |
| UCUGCCC | -0.752 |
| CAGAAUC | -0.318 |
| CAUCUUA | -0.708 |
| CAUCCCU | -0.69 |
| ACGCCAC | -0.675 |
| CGCGAUA | -0.187 |
| GGAUAUA | 1.27 |
| CAACAUA | -0.373 |
| GCCGCAA | -0.442 |
| UGUGUUC | -0.588 |

| Sequence | RNAcompete 7-mer binding Z-score |
| --- | --- |
| UCGGCAU | -0.409 |
| ACCACGA | -0.307 |
| AGGCUUG | -0.253 |
| CCAAUUC | -0.672 |
| AUCCAUG | -0.307 |
| UCUUUUG | -0.632 |
| UAUGACG | -0.0925 |
| CGUACUC | -0.562 |
| AUGGGCA | 2.7 |
| AUACGCG | -0.377 |
| CCGUACC | -0.588 |
| CUACCGA | -0.562 |
| AUAUUUC | -0.694 |
| ACUAAAA | -0.643 |
| CAUCCGC | -0.817 |
| ACCUAAA | -0.81 |
| GGCCUAC | -0.697 |
| UCCACUU | -0.854 |
| CUGUUAG | -0.526 |
| CAUGCGC | -0.664 |
| CGACAAU | -0.428 |
| AUUGGUG | 1.84 |
| GGGGUGU | 3.53 |
| ACUCACC | -0.77 |

| Sequence | RNAcompete 7-mer binding Z-score |
| --- | --- |
| GUUAGUC | -0.337 |
| ACCUUCG | -0.861 |
| CUAGCGA | -0.34 |
| AGCGCGU | -0.136 |
| AUGUGUU | -0.133 |
| CCAAAUC | -0.639 |
| CUAAUUU | -0.919 |
| ACUGUCA | -0.715 |
| AUGCUGU | -0.613 |
| CUAAUUC | -0.795 |
| UUAGAGC | -0.296 |
| UCGCGGG | 1.13 |
| AAUGGGA | 4.69 |
| UGUAAAA | -0.118 |
| GACGCGU | -0.0889 |
| CCUGUCC | -0.817 |
| ACUCUCG | -0.894 |
| GUACUGA | 0.00944 |
| GAAAAGU | 0.563 |
| UGUCAGU | -0.0634 |
| GGCACAC | 0.108 |
| CUCUCUG | -0.744 |
| AUCGCAG | -0.3 |
| CUACUCU | -0.803 |
